According to PubChem BioAssay AID485344 (National Center for Advancing Translational Sciences (NCATS), 2010):
In all, about 340,000 compounds went through this assay and about 6,900 (2%) were called active. No stated cut-off is given here; in the data, active means inhibition above about 30%; inactive means below that, where a call was filed. This is a selection; strong and weak results do not stand in their true shares. Entries without a call were filed so in the source.

Biological target: D(2) dopamine receptor (Homo sapiens) (UniProt P14416)
Assay: HTS Assay for Allosteric Antagonists of the Human D2 Dopamine Receptor: Primary Screen for Antagonists; further: 0% is about no effect
Conditions: HEK293 TREx D2 cells, calcium flux, dopamine EC80; at 10 µM; stronger effect = higher value
Method in brief: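 Tetracycline-induced HEK293 T-REx cells expressing D2 force-coupled to calcium signalling were dye-loaded, exposed to compound for 180 s, then challenged with an EC80 of dopamine; calcium flux was followed kinetically for a further 180 s.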

UniProt P14416, sequence (P14416 whole entry, looked up): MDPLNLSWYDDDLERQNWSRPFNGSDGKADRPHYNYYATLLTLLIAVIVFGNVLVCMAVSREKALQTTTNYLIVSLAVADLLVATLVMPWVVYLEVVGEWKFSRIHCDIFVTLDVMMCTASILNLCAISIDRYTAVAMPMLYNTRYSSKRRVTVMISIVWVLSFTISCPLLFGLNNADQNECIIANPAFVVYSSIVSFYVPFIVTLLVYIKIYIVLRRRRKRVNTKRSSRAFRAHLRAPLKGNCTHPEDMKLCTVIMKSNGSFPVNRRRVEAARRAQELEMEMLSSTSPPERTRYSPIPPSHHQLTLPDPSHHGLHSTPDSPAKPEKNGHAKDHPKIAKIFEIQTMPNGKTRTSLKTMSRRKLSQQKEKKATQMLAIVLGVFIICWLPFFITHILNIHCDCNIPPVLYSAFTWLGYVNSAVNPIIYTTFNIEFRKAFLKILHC

| SMILES | inhibition |
| --- | --- |
| CCc1cccc(NC(=O)c2cc(-c3ccccc3)n[nH]2)c1 | -22.3% |
| COc1cccc(OCCCn2c(-c3ccc(Cl)cc3)nc3ccccc3c2=O)c1 | -2.01% |
| Cc1nnc(N2CCN(c3ccc(Cl)cc3)CC2)c2c1nnn2Cc1ccc(F)cc1 | 2.78% |
| CC(C)C(=O)NC1CC(=O)N(c2ccc3c(c2)OCCO3)C1 (stereo unspecified) | -14.9% |
| COc1ccccc1Cn1ccn(CC(=O)Nc2c(C)cc(C)cc2C)c(=O)c1=O | 10.2% |
| COc1cccc(C(c2sc3nc(-c4ccco4)nn3c2O)N2CCCC2)c1 (stereo unspecified) | 25.9% |
| Cc1c(C(=O)Nc2cccc(F)c2)sc2nc(-c3cc4ccccc4oc3=O)[nH]c(=O)c12 | -10.8% |
| COc1ccc(NC(=O)c2c(NCc3cccs3)sc3c2CCCCC3)cc1 | 13.6% |
| CN(C1CCCCC1)S(=O)(=O)c1ccc(F)c(C(=O)Nc2ccc(C(F)(F)F)cc2)c1 | 5.77% |
| Cc1ccc(-n2nc(C)c3c(C)cc(=O)n(CC(=O)Nc4ccc(C(C)C)cc4)c32)cc1 | 7.49% |
| CCc1ccc(NC(=O)C(=O)NCCc2sc(-c3ccc(OC)c(OC)c3)nc2C)cc1 | 4.58% |
| CC1CCCCN1C(=O)c1ccc2c(c1)N(Cc1ccc(Cl)cc1)C(=O)c1ccccc1S2=O (stereo unspecified) | -5.83% |
| CCc1ccc(NC(=O)CSc2nc(-c3ccccc3)no2)cc1 | -4.61% |
| CN(C)S(=O)(=O)N(CC(=O)Nc1ccc(Br)cc1F)c1ccccc1 | -1.99% |
| O=C(c1ccc(Br)o1)N1CCN(Cc2ccc3c(c2)OCO3)CC1 | active: 58.4% |
| O=C(Cn1c(SCCOc2ccccc2Cl)nc2ccccc21)N1CCOCC1 | 6.89% |
| Fc1ccccc1N1CCN(c2nnc(C(F)(F)F)c3nnn(Cc4ccccc4)c23)CC1 | 3.53% |
| COc1ccc2c(CNCc3ccco3)c(C(=O)O)n(Cc3ccc(F)cc3Cl)c2c1 | -16.1% |
| COCCNC(=O)CSc1nc2cc3c(cc2c(=O)n1CCCC(=O)NCCc1ccc(OC)c(OC)c1)OCO3 | -23.9% |
| CCC(CC)C(=O)Nc1nnc(SCc2cc(=O)c3ccccc3[nH]2)s1 | 11.7% |
| CCC(C)(C)NC(=O)C1CCC(CNS(=O)(=O)c2ccc3c(c2)CC(C)N3C(C)=O)CC1 (stereo unspecified) | -4.89% |

| SMILES | inhibition |
| --- | --- |
| CCCCNC(=O)CCCN1C(=O)CCn2nc(-c3cccn3C)cc21 | -5.38% |
| COc1cccc(NC(=O)Cn2c(=O)n(-c3cccc(OC)c3)c(=O)c3sc4ccccc4c32)c1 | 0.811% |
| Cc1ccc(Cl)cc1N1CCN(C2(c3ccccc3)C(=O)c3ccccc3C2=O)CC1 | 6.25% |
| COc1ccc(C)cc1NC(=O)C1CCCN(S(=O)(=O)c2ccc3c(c2)CCCN3C(C)=O)C1 (stereo unspecified) | 4.92% |
| CCC(C)NS(=O)(=O)c1ccc(N2CCCCS2(=O)=O)cc1 (stereo unspecified) | 9.19% |
| COc1cccc2c1cc1c(=O)n(CC(=O)N3CCCCC3)nc(C)n12 | 14.9% |
| Cc1ccc(C(=O)Nc2ccc(C(=O)O)cc2)cc1S(=O)(=O)Nc1ccccc1 | -10.8% |
| Cc1ccc(-n2c3c(c(=O)[nH]c2=O)C(NS(=O)(=O)c2ccc(Cl)cc2)(C(F)(F)F)C(=O)N3)cc1 (stereo unspecified) | -9.82% |
| NC(=O)C1CCN(c2ncnc3c2cnn3-c2ccccc2)CC1 | -1.34% |
| Fc1cccc(NCc2ccccc2-c2nnc(-c3ccccc3Cl)o2)c1 | 27.8% |
| CCOC(=O)c1[nH]c2ccccc2c1NC(=O)c1ccccc1F | 13.4% |
| Cc1oc2ncnc(N3CCCCC3)c2c1C(=O)NCC1CCN(Cc2cccc(F)c2)CC1 | -14.8% |
| CCN1CCN(CCCNC(=O)CS(=O)(=O)Cc2nc(-c3cccc(OC)c3)oc2C)CC1 | -1.83% |
| O=C(NCCc1ccccc1)C(=O)NCC(c1ccco1)S(=O)(=O)c1cccs1 (stereo unspecified) | 22.4% |
| COc1ccc(-c2nc(CSc3nncn4c3cc3oc(C)cc34)c(C)o2)cc1 | -5.23% |
| Cc1ccc(-n2nnc(-c3nc(-c4cccs4)no3)c2N)cc1C | 7.29% |
| COc1ccc(OC)c(CCNC(=O)c2ccc3c(c2)c(C)c(C)n3Cc2ccccc2)c1 | -0.342% |
| COc1cc(NC(=O)CN2C(=O)c3ccccc3Sc3ccc(C(=O)N4CCCC4)cc32)cc(OC)c1 | 16.2% |
| CCOC(=O)c1ccccc1NC(=O)CN1CCCN(Cc2cc(C)ccc2C)S1(=O)=O | -3.27% |
| O=C(Cc1cccs1)N(CC1CCCO1)C1(C(=O)NC2CCCCC2)CCCCC1 (stereo unspecified) | active: 34% |
| CCc1cccc(C)c1NC(=O)CCS(=O)(=O)c1cc(Br)cc2c1N(C(=O)C1CC1)CC2 | -1.09% |

| SMILES | inhibition |
| --- | --- |
| CCCc1nn2c(=O)cc(COC(=O)c3cccc(NC(=O)c4cccs4)c3)nc2s1 | -8.21% |
| COc1ccc(C(=O)NCC(c2cccnc2)N2CCN(c3ccccc3)CC2)cc1 (stereo unspecified) | -4.06% |
| O=S(=O)(/C=C/c1ccccc1)Nc1ccc2c(c1)OCO2 | active: 34.3% |
| COc1cccc(Cn2c(=O)cc(C)c3c(C)nn(C)c32)c1 | 0.142% |
| Cc1c(C(=O)NCc2ccc(Cl)cc2)sc2nc3n(c(=O)c12)CCCCC3 | 13.1% |
| COc1ccc(S(=O)Cc2ccc(C(=O)N3CCN(c4cccc(C)c4C)CC3)o2)cc1 (stereo unspecified) | 6.98% |
| Cc1c(Cl)cccc1NC(=O)Cn1c(=O)n(Cc2ccco2)c(=O)c2sc3ccccc3c21 | 4.84% |
| CCc1nn2c(-c3ccccc3OC)ccnc2c1-c1ccccc1 | 11.5% |
| O=C(CCCCn1c(=O)c2ccccc2n(CC(=O)Nc2cccc(C(F)(F)F)c2)c1=O)NCc1ccc2c(c1)OCO2 | -13.2% |
| CCC(CC)c1nn2c(=O)cc(COc3ccc(NC(=O)c4ccccc4C)cc3)nc2s1 | -2.3% |
| COc1cc(NS(=O)(=O)c2ccc(NC(=O)c3cccc(F)c3)cc2)nc(OC)n1 | 5.21% |
| Cc1ccccc1NC(=O)c1ccc2[nH]c(C)c(C)c2c1 | -0.15% |
| COc1cc(NC(=O)CC2C(=O)OCCN2Cc2ccccc2)cc(OC)c1 (stereo unspecified) | -10.9% |
| CCC1CN(S(=O)(=O)c2cc(-c3cc(C)no3)ccc2C)c2cc(Cl)ccc2O1 (stereo unspecified) | 2.28% |
| Cc1ccccc1Nc1c(-c2ccc(Cl)cc2)nc2c(C)cccn12 | 0.0991% |
| CC(C)c1ccc(NC(=O)C2CCN(S(=O)(=O)c3cccc4nonc34)CC2)cc1 | -5.83% |
| COc1ccc(NC(=O)Cn2c(=O)n(CCc3ccccc3)c(=O)c3c4c(sc32)CCCC4)cc1 | -6.98% |
| Cc1ccc(N2C(=O)CSC23C(=O)N(Cc2ccccc2F)c2ccccc23)cc1F (stereo unspecified) | 6.49% |
| CCOC(=O)c1c(NC(=O)c2nc(SCC)ncc2Cl)sc2c1CCCC2 | -2.06% |
